The compounds below were run on cell death caused by Tunicamycin (assay: Cytoprotective effect: suppression of cell death caused by Tunicamycin (viable cell count)). Settings: read-out: IC50 for suppressing cell death caused by Tunicamycin.
Description: The final concentration of each test compound in the compound evaluation solution was varied and viable cell count was measured to determine the 50% inhibitory concentration (IC50) for suppressing cell death caused by Tunicamycin.

| SMILES | IC50 |
| --- | --- |
| O=C([O-])CCCc1ccccc1.[Na+] [4PBA, Sodium 4-phenylbutyrate, reference compound] | 5400 µM |
| COc1ccc(-c2cn3c(n2)sc2ccccc23)cc1 [Compound No. 17] | 0.7 µM |
| C[C@H](CCC(=O)NCCS(=O)(=O)O)[C@H]1CC[C@H]2[C@@H]3[C@@H](O)C[C@@H]4C[C@H](O)CC[C@]4(C)[C@H]3CC[C@]12C [TUDCA, Tauroursodeoxycholic Acid, reference compound] | 2100 µM |
| COC(=O)c1ccc2c(c1)sc1nc(-c3ccccc3)cn12 [compound 2] | 0.34 µM |
| Clc1ccc(-c2cn3c(n2)sc2ccccc23)cc1 [compound 3] | 0.43 µM |
| CCc1ccc(-c2cn3c(n2)sc2cc(C(=O)OC)ccc23)cc1 [compound 4] | 0.41 µM |
| Fc1ccccc1-c1cn2c(n1)sc1ccccc12 [compound 5] | 3.7 µM |
| CCN(CC)CCCNC(=O)c1ccc2c(c1)sc1nc(-c3ccc(OC)cc3)cn12 [compound 6] | 6.7 µM |
| COc1cccc(-c2cn3c(n2)sc2cc(C(=O)NCCCN4CCOCC4)ccc23)c1 [compound 8] | 1.6 µM |
| CCN(CC)CCCNC(=O)c1ccc2c(c1)sc1nc(-c3ccccc3)cn12 [compound 9] | 7.4 µM |
| O=C(NCCCN1CCCCC1)c1ccc2c(c1)sc1nc(-c3ccccc3)cn12 [compound 10] | 9.2 µM |
| CCOC(=O)C1CCN(C(=O)c2ccc3c(c2)sc2nc(-c4ccc(OC)cc4)cn23)CC1 [compound 13] | 5 µM |
| COC(=O)c1ccc2c(c1)sc1nc(-c3cccc(OC)c3)cn12 [compound 14] | 0.01 µM |
| COC(=O)c1ccc2c(c1)sc1nc(-c3ccc(Cl)cc3)cn12 [compound 15] | 0.01 µM |
| Cc1ccc2c(c1)sc1nc(-c3ccccc3)cn12 [compound 16] | 1.2 µM |
| FC(F)Oc1ccc(-c2cn3c(n2)sc2ccccc23)cc1 [compound 18] | 2.6 µM |
| CCN(CC)CCCNC(=O)c1ccc2c(c1)sc1nc(-c3ccc(F)cc3)cn12 [compound 19] | 8 µM |
| CCOc1ccc(-c2cn3c(n2)sc2cc(C(=O)NCCCN4CCCC4=O)ccc23)cc1 [compound 20] | 7.8 µM |
| O=C(O)c1ccc2c(c1)sc1nc(-c3ccccc3)cn12 [compound 23] | 12 µM |
| NC(=O)c1cc(-c2cn3c(n2)sc2ccccc23)ccc1O [compound 24] | 7.5 µM |
| CS(=O)(=O)c1ccc2c(c1)sc1nc(-c3ccc(Cl)cc3)cn12 [compound 25] | 0.08 µM |

Same assay, conditions: read-out: IC50 for suppressing cell death caused by Tunicamycin; viable cell count; coexistence of Tunicamycin

| SMILES | IC50 |
| --- | --- |
| CCCC(=O)NCCc1csc(-c2ccc(Cl)cc2)n1 [Azoramide, reference compound] | 86 µM |
